# In the supplement of paper PMC4466236:
# In all, about 33,000 sequences were measured (“E-score (dimensionless, -0.5 to 0.5)”: median about -0.058, highest 2% from about 0.35 on). Some of the results follow.
# Tested on: MvaT
# Assay: PBM 8-mer E-score (mean of HK and ME arrays) (E-score (dimensionless, -0.5 to 0.5)); higher = stronger relative binding preference; most listed sequences are background and not binding sites
# Outline: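 Full-length P. aeruginosa MvaT carrying an N-terminal glutathione S-transferase tag was tested by protein binding microarray following a previously described protocol. Two universal double-stranded 60-mer arrays, ME and HK, were used, each with a constant 25-mer primer region and a variable 35-mer region covering all 8-mers. The rank-based E-score is the mean of the two arrays, parsed with a custom script. Its range runs from -0.5 to 0.5 for each 8-mer.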
row,Sequence,PBM 8-mer E-score
1,GGATGCCC,-0.254
2,CATATACA,0.275
3,ATATTCCA,0.329
4,ATGGTCAA,0.0074
5,CGCAGACA,-0.0204
6,CATAGTGA,-0.0399
7,CATCCCAG,-0.201
8,ATGACGGC,-0.0668
9,CGAGGAAA,-0.0976
10,CTATTTTC,0.0441
11,CTGCACCC,-0.178
12,GCGCTGAC,-0.126
13,CTTTACAC,0.152
14,GCTGGCCC,-0.255
15,AGATATGC,0.0519
16,AAGCGTCC,-0.286
17,CAGCAGAG,-0.175
18,ACTTGTGC,0.0655
19,CAAAGAGA,0.0164
20,AAGGTACA,0.0388
21,AAAAGTCA,0.0201
22,CGCTAAAG,0.0562
23,AAATCCTC,-0.0318
24,ATAACTCC,0.236
25,TCGTTGAA,-0.118

row,Sequence,PBM 8-mer E-score
1,ATTACTAG,0.268
2,GAAGGGGA,-0.249
3,ATTCCTGG,0.0037
4,GCGGCCAA,-0.0824
5,GGCTTGTA,-0.113
6,ACATGGGA,-0.0795
7,AGGCTCCA,-0.221
8,CATATTAG,0.305
9,CCCGTAAA,0.0209
10,CACAATTA,0.316
11,ACACGGAC,-0.108
12,GACCGGTC,-0.179
13,GTATGTAA,0.196
14,GACCTTCC,-0.223
15,CCGCTCCA,-0.162
16,ACCCACCG,-0.122
17,GATAAGCC,-0.109
18,AGCGCACA,-0.135
19,GTAATCAC,0.12
20,CCCCGTTC,-0.279
21,AACCGTAC,-0.194
22,CACCGAAC,-0.204
23,ACGTTAAT,0.314
24,CACGCGTG,0.142
25,TACCCAGA,0.0205

row,Sequence,PBM 8-mer E-score
1,CCGATCAG,-0.192
2,CGTAGTTA,0.0756
3,ATCGGGAA,-0.0197
4,GCCCCCAC,-0.198
5,CTCCTCTC,-0.248
6,ATCGAAGA,-0.0398
7,ACGAGGAC,-0.177
8,CGCACTAA,0.203
9,CGTATCGC,-0.0542
10,TACAGCCA,0.0553
11,TTCCACAA,0.14
12,CGTAATAA,0.398
13,ATGCAGGC,-0.0163
14,CGATCCAC,-0.203
15,AAAGAGGC,-0.0241
16,TGGCGTAA,0.14
17,CCTCAAGG,-0.268
18,CAAGGCAG,-0.0831
19,AGGCGTGA,-0.147
20,GAGCCGAA,-0.173
21,ACTGACAC,0.095
22,AAGGGAAT,-0.00272
23,ATTCCACC,0.00652
24,AAGGATTG,-0.0828
25,ACATCGTG,-0.0855

row,Sequence,PBM 8-mer E-score
1,AGCACCAA,-0.0599
2,AACCGATC,-0.0759
3,GTCACATA,0.0492
4,CATCTCAC,-0.0373
5,CTCTCTCA,-0.132
6,CACACACC,-0.0522
7,CTCCGGCC,-0.237
8,CCATCCGC,-0.0732
9,AAGTTTGT,0.249
10,AGACAGCC,-0.154
11,CCCTTTAA,0.0895
12,TATACGGA,0.123
13,AAGTTCTC,-0.00886
14,AGTAAGCG,0.159
15,TATGCTAA,0.11
16,CCACCGTC,-0.258
17,CGGATCAC,-0.0365
18,GCCTTACA,-0.00875
19,ATGCCGTA,-0.0404
20,CGCATTGC,-0.2
21,CACGCCTG,-0.124
22,AAGTACCG,0.0895
23,CTGAACGA,-0.103
24,GTTCTCTA,-0.00159
25,CGCTTAGA,-0.0246

row,Sequence,PBM 8-mer E-score
1,GAAGGTGC,-0.301
2,CATGCCAG,-0.173
3,ACGATGTC,-0.14
4,AGCGTTAT,0.161
5,CCAAGATA,0.15
6,AACTGGCC,-0.0267
7,AAACCCTT,-0.0425
8,GATATCTA,0.267
9,CATCGCCA,-0.178
10,AATCCTGG,-0.0944
11,GCTCGCGA,-0.215
12,GATAGGTA,0.0113
13,ACATTTAG,0.177
14,TCGATCGA,0.000441
15,CGCCGTGC,-0.185
16,CTTAGGAC,-0.185
17,CCCACGAA,-0.163
18,TCCAGTAA,0.0231
19,TACTAGCA,0.0141
20,AGTGTTTG,0.258
21,AGCTACAC,-0.0931
22,CGGCTGAC,-0.201
23,CTTCTCGC,-0.152
24,ATTTCGCC,-0.201
25,CGTTTCTA,-0.00644

row,Sequence,PBM 8-mer E-score
1,ATCATGAG,-0.0671
2,GATACCTA,0.031
3,CGGTTGCA,-0.0698
4,ACGAATCG,-0.0371
5,CGGAGCCG,-0.18
6,GATACAGA,-0.156
7,AGCGAACG,-0.229
8,TCTTAGCA,0.0165
9,AGTAAGTG,0.135
10,AGTGACCA,-0.126
11,GGCGCGAA,-0.231
12,GTGAACAC,0.00148
13,CGCGCGAC,-0.072
14,AAAGGGGA,-0.151
15,TCCGAACA,0.127
16,ACACTGTG,-0.11
17,ACACGCAC,-0.0903
18,GACACACA,0.101
19,ATCCGCCC,-0.162
20,ACGCCACG,-0.168
21,CCGCCAGA,-0.0664
22,CAGAAGGG,-0.293
23,CGTACCAC,-0.115
24,GCTACCCC,-0.227
25,AACACCTA,0.0374

row,Sequence,PBM 8-mer E-score
1,CACGCAAC,-0.034
2,ACGGTCAC,-0.141
3,CCCATGCC,-0.133
4,CAGCAGCC,-0.202
5,CGATACTC,-0.0359
6,CCGTGAGG,-0.322
7,AGACGTAC,0.0372
8,AACCTCTC,-0.0112
9,AACGGCCG,0.00384
10,CCCAGGCA,-0.262
11,GTAACTTA,0.37
12,GGTTTCAC,-0.273
13,GGCTGGGA,-0.264
14,GCCTCTCA,-0.295
15,CATCCCGA,-0.0328
16,GTATAAAA,0.216
17,ACACCTAT,0.106
18,TGTTAGAA,0.16
19,CTGTTGGC,-0.0873
20,ATGCGGAG,-0.193
21,AGTTCTAT,0.194
22,ACAACATG,0.184
